# Reference: PubChem BioAssay (Tox21)
# This list was built around the results that the source calls inconclusive (neither active nor inactive); the mix of calls is not that of the screen. Potencies beside an inconclusive call are fits to weak or partial responses and may not hold up. Active and inactive are the calls of the source. Calls follow the shape of the dose curve; as a rule, active = well fitted cell-killing curve with a large enough effect in the repeat runs; inconclusive = weak or mixed curves, or effect the other way; inactive = flat fitted curve, though single readings scatter.
# Experiment: cAMP Responsive Elements (CRE) small molecule antagonists, cell-based qHTS assay: qHTS cell viability counter screen (AID 2060913); also: nearly all actives have a fitted effect of over 40% in size
# Conditions: CRE-bla HEK293T viability, CellTiter-Glo luminescence, 5 h; series mostly up to 92.4 µM; viability change, negative = cytotoxic: at the top concentration
# Method in brief: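 CRE-bla HEK293T cells were seeded in assay medium with 10% dialyzed FBS, incubated 18 hrs at 37 C, then exposed to compounds plus 0.25 uM final NKH477 for 3 hrs. Viability was read by CellTiter-Glo luminescence after 30 min, in the same wells.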
# % is scaled to controls: 0 for no effect and ±100 for the full control effect; potency is read from the fitted curve at half-maximal effect; tags tell the direction and shape of the fitted curve.
SMILES,Potency,"viability change, negative = cytotoxic"
Oc1ccc(O)cc1,"inconclusive: 24.2 µM [rising, partial curve, poor fit]",
Nc1ccc(C(=O)O)c(O)c1,,inactive: -1.64% [at 42.5 µM]
CN(C)C(=O)C1(N2CCCCC2)CCN(CC[C@@]2(c3ccc(Cl)c(Cl)c3)CN(C(=O)c3ccccc3)CCO2)CC1,active: 64.1 µM,
CN(C)c1cccc(O)c1,inactive,
CCCC1C(CC)=CC(CC)=CN1c1ccccc1 (stereo not given),"inconclusive: 13.7 µM [cytotoxic, partial curve, poor fit]",
CCCCOCCOCCOC(C)=O,"inconclusive: 25.4 µM [cytotoxic, partial curve, poor fit]",
COc1cc2c(Nc3ccc(Br)cc3F)ncnc2cc1OCC1CCN(C)CC1,,inactive: -0.808% [at 42.5 µM]
Oc1ccccc1F,,inactive: -4.56%
N=C(N)N1CCc2ccccc2C1,,inactive: -0.283% [at 8.39 µM]
CCN1/C(=C/C=C/c2sc3ccccc3[n+]2CC)Sc2ccccc21,"inconclusive: 5.8 µM [cytotoxic, partial curve]",
COC(=O)c1ccccc1,"inconclusive: 2.7 µM [cytotoxic, single point]",
O=C(Oc1ccccc1)c1cccc(C(=O)Oc2ccccc2)c1,"inconclusive: 32.3 µM [cytotoxic, partial curve, poor fit]",
O=C(O)CCCCCCCCCCC(=O)O,"inconclusive: 25.4 µM [cytotoxic, single point]",
COCCOC(=O)c1ccccc1C(=O)OCCOC,"inconclusive: 2.02 µM [cytotoxic, partial curve, poor fit]",
O=C(CCCN1CCC(O)(c2ccc(Cl)cc2)CC1)c1ccc(F)cc1,inactive,
OC[C@@H](O)C(O)[C@@H](O)CO (stereo not given in full),,inactive: 5.53%
Cc1oc(-c2ccccc2)nc1CCC(=O)c1ccc(CC2SC(=O)NC2=O)cc1 (stereo not given),,inactive: 0.867% [at 42.5 µM]
CN1CN(C)CN(C)C1,"inconclusive: 2.43 µM [cytotoxic, single point]",
CO[C@H]1C=CO[C@@]2(C)Oc3c(C)c(O)c4c(O)c(c5c(c4c3C2=O)=NC2(CCN(CC(C)C)CC2)N=5)NC(=O)/C(C)=C\C=C/[C@H](C)[C@H](O)[C@@H](C)[C@@H](O)[C@@H](C)[C@H](OC(C)=O)[C@@H]1C,,inactive: 0.529%
COC(=O)c1nc(Cl)c(Cl)nc1N,"inconclusive: 33.5 µM [rising, single point]",

SMILES,Potency,"viability change, negative = cytotoxic"
NCCO,"inconclusive: 12.8 µM [cytotoxic, single point]",
COCCCCCCCCOCCC[Si](C)(O[Si](C)(C)C)O[Si](C)(C)C,"inconclusive: 17.2 µM [cytotoxic, partial curve, poor fit]",
O=C1CCCCCCCCCCCC(=O)OCCO1,"inconclusive: 68.6 µM [cytotoxic, partial curve, poor fit]",
CN1CCN(CCCN2c3ccccc3Sc3ccc(C(F)(F)F)cc32)CC1,inconclusive: 29.8 µM [cytotoxic],
O=C(NCCc1c[nH]c2ccccc12)c1cccnc1,,inactive: 7.12% [at 42.5 µM]
C=CC(=O)OCC(O)COc1ccccc1 (stereo not given),"inconclusive: 68.6 µM [rising, single point]",
N=C(N)c1ccc(OCCCCCOc2ccc(C(=N)N)cc2)cc1,inactive,
Cc1oncc1C(=O)Nc1ccc(C(F)(F)F)cc1,"inconclusive: 68.6 µM [cytotoxic, partial curve, poor fit]",
Nc1ccc(N=Nc2ccc(N)cc2)cc1,,inactive: 20.7% [at 42.5 µM]
CC(C)(C)c1ccc(N)cc1,"inconclusive: 14.3 µM [cytotoxic, single point]",
CC1(C)[C@@H](O)CC[C@]2(C)[C@H]3C(=O)C=C4[C@@H]5C[C@@](C)(C(=O)O)CC[C@]5(C)CC[C@@]4(C)[C@]3(C)CC[C@@H]12,"inconclusive: 42.8 µM [cytotoxic, partial curve, poor fit]",
C=CC(=O)OCCOC(=O)CCC(=O)O,,inactive: 6.41%
CCc1cc(Cc2cc(CC)cc(C(C)(C)C)c2O)c(O)c(C(C)(C)C)c1,"inconclusive: 11.4 µM [cytotoxic, partial curve]",
CC(=O)Nc1c(I)cc(I)c(C(=O)O)c1I,,inactive: -2.56% [at 42.5 µM]
Nc1[nH]c(=O)ncc1F,,inactive: 4.21% [at 42.5 µM]
NCCNCCNCCN,inactive,
CN1CC[C@H](c2c(O)cc(O)c3c(=O)cc(-c4ccccc4Cl)oc23)[C@H](O)C1,"inconclusive: 1.06 µM [rising, full curve, poor fit]",
CC(C)Oc1ccc2c(=O)c(-c3ccccc3)coc2c1,inactive,
c1ccc(C[P+](c2ccccc2)(c2ccccc2)c2ccccc2)cc1,"inconclusive: 9.69 µM [cytotoxic, full curve]",
Cc1[nH]cnc1C[C@H]1CCc2c(C)c3ccccc3n2C1=O,"inconclusive: 49.5 µM [cytotoxic, partial curve, poor fit]",
